Data on one molecule can be found in patent US20140044674A1 (Hoffmann-La Roche, published 2014).

The target of experiment [1] is T1, recombinant human FAP coated on cell culture plates (human, UniProt Q12884 26-760, limits assumed). The experiment in a line: cell-based or functional assay.
The target of experiment [2] is T1, recombinant human FAP coated on cell …. The experiment in a line: cell-based or functional assay. This is another data set of the same source.
For experiment [3] the target is unchanged. The experiment in a line: cell-based or functional assay. This is another data set of the same source.
Experiment [4] deals with T2, IL-10R on freshly isolated human blood monocytes (human, UniProt Q13651 22-578; Q08334 20-325).
T2 sequence (looked up) 1: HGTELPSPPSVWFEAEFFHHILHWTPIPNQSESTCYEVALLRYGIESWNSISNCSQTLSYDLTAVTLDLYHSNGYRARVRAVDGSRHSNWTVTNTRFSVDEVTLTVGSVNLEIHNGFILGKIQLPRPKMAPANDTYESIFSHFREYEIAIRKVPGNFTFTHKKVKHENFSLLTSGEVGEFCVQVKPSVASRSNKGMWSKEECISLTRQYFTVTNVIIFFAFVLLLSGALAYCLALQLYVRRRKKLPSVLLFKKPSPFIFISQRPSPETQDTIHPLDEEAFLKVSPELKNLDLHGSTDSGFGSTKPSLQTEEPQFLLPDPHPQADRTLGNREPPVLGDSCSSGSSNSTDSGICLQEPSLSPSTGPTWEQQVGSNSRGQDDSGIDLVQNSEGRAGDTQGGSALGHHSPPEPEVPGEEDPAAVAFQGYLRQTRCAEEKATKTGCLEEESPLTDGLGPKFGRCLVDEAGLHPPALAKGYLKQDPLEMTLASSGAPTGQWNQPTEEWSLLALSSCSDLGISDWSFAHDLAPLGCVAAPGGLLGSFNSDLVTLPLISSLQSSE
T2 sequence (looked up) 2: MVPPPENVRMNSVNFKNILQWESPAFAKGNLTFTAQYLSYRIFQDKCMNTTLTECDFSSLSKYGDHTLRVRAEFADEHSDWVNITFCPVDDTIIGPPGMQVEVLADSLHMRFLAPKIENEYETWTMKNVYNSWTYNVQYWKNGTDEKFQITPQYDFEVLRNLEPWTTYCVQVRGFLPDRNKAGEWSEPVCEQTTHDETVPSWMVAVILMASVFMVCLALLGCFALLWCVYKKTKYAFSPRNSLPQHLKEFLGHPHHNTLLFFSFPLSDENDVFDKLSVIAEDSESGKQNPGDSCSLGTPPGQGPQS
The experiment in a line: cell-based or functional assay.

Another experiment concerns the target T3, His-tagged human FAP ECD (human, UniProt Q12884 27-760).
T3 construct: also called hu FAP
The experiment in a line: SPR ProteOn XPR36, 25 C; His-tagged FAP captured by anti-penta-His IgG, construct as analyte.

For another experiment, the target named is T4, His-tagged mouse FAP ECD (mouse, UniProt P97321 27-761).
T4 construct: also called mu FAP; murine FAP
The experiment is described as above.

In experiment [5] the target is T5, His-tagged cynomolgus FAP ECD (cynomolgus, UniProt Q12884 27-760 (human entry)).
T5 construct: also called cyno FAP
The experiment is described as above.

B1: 4B9 IgG-IL-10 (other)
heavy: EVQLLESGGGLVQPGGSLRLSCAASGFTFSSYAMSWVRQAPGKGLEWVSAIIGSGASTYYADSVKGRFTISRDNSKNTLYLQMNSLRAEDTAVYYCAKGWFGGFNYWGQGTLVTVSSASTKGPSVFPLAPSSKSTSGGTAALGCLVKDYFPEPVTVSWNSGALTSGVHTFPAVLQSSGLYSLSSVVTVPSSSLGTQTYICNVNHKPSNTKVDKKV[human IgG1 Fc with changes omitted here]GGGGSGGGGSGGGGSGGGGSSPGQGTQSENSCTHFPGNLPNMLRDLRDAFSRVKTFFQMKDQLDNLLLKESLLEDFKGYLGCQALSEMIQFYLEEVMPQAENQDPDIKAHVNSLGENLKTLRLRLRRCHRFLPCENKSKAVEQVKNAFNKLQEKGIYKAMSEFDIFINYIEAYMTMKIRN
light: EIVLTQSPGTLSLSPGERATLSCRASQSVTSSYLAWYQQKPGQAPRLLINVGSRRATGIPDRFSGSGSGTDFTLTISRLEPEDFAVYYCQQGIMLPPTFGQGTKVEIKRTVAAPSVFIFPPSDEQLKSGTASVVCLLNNFYPREAKVQWKVDNALQSGNSQESVTEQDSKDSTYSLSSTLTLSKADYEKHKVYACEVTHQGLSSPVTKSFNRGEC
notes: also called IgG-IL-10 (clone 4B9)
Turning to B1, in experiment [1], the “EC50 [nM] IL-6, suppression of IL-6 production by monocytes, Set-up (b), donor 7” value came out at 0.002 nM. Also, the “EC50, suppression of hIL-6 production by monocytes, set-up (b) (immobilized)” value in experiment [2] was 11 pM. For the same molecule, the “EC50, down-regulation of IFNγ-induced MHC-II expression on primary monocytes, set-up (b) (immobilized)” value in experiment [3] came out at 18 pM. Also, the “EC50 [nM] pSTAT3 induction, primary monocytes” value in experiment [4] turned out to be 0.13 nM. Further, in the experiment with His-tagged human FAP ECD, binding was characterised by a dissociation constant (Kd) of 10.6 pM, the koff is 4.03e-05 s⁻¹ and the kon was found to be 3.81e+06 M⁻¹ s⁻¹. In the experiment with His-tagged mouse FAP ECD, this molecule yielded a Kd of 58.3 pM, a koff of 0.000124 s⁻¹ and a kon of 2.12e+06 M⁻¹ s⁻¹. Also, in experiment [5], the Kd was 5.22 pM, the koff came to 2.86e-05 s⁻¹ and the kon is 5.47e+06 M⁻¹ s⁻¹.
